Common to all, as to conditions: 20 mM HEPES pH 7.9, 100 mM NaCl, 1 mM DTT, 0.2 mg/mL BSA, 0.02% Triton X-100, 2% milk, 0.4 mg/mL salmon testes DNA; 1 h; temperature not stated; high values mean tight binding; double strand, one strand shown; sequences stand for … in GCCTAGCAC…GTGCTAGGTCTTGATTCGCTTGACGCTGCTG
For assay [1], the target named is PU.1 (IVT) (UniProt P17947). Briefly: protein-binding microarray (PBM).
Assay [2] has as its target PU.1 (endogenous, THP-1 nuclear extract) (UniProt P17947). Briefly: nuclear extract protein-binding microarray (nextPBM).
For assay [3], the target named is T1, FLI1 (endogenous, THP-1 nuclear extract) (UniProt Q01543).
T1 sequence: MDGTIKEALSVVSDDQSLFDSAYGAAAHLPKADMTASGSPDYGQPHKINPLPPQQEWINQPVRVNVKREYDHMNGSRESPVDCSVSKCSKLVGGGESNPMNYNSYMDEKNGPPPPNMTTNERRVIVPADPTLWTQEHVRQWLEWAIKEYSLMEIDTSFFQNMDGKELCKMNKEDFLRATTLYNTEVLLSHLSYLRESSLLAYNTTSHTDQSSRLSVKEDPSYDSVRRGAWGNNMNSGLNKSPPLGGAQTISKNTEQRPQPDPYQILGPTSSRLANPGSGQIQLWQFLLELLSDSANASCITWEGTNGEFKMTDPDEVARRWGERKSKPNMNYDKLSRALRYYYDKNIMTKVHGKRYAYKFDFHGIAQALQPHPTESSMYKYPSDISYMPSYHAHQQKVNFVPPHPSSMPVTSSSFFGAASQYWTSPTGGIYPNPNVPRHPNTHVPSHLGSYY
The assay is described as above.

The test system of assay [4] is PU.1 (endogenous, THP-1 nuclear extract) + IRF8 (endogenous, THP-1 nuclear extract). Described as above.

The other results are listed elsewhere or left out. For some assays here: At the low end of the ranking the order means little. For some assays here: The protein was read in a cell extract, so binding may be indirect.

In the case of GGAGCATGGTACAAGAGACT, the binding signal was -0.821 z-score in assay [1], -0.43 z-score in assay [2], -0.676 z-score in assay [3] and 0.00634 z-score in assay [4].
For TAGTTCCCTCCCTGTCAAAG, in that order: 2.32 z-score, 1.94 z-score, 0.666 z-score and 0.0463 z-score.
For TTTATGGAAATAGCGGTTTT, in that order: 0.608 z-score, 0.34 z-score, 0.813 z-score and -0.233 z-score.
The matching figures for TTGGAGATAGGTTAGCAATA: -0.078 z-score, -0.302 z-score, -0.191 z-score and -0.432 z-score.
As to TGCTGACGTGGGGGTGGTTG, the binding signal in assay [1] was -0.353 z-score; in assay [2], -0.155 z-score; in assay [3], -0.525 z-score; in assay [4], 0.357 z-score.
The matching figures for CAGCACCAGGGGCACATTTG: 0.034 z-score, -0.341 z-score, -1.01 z-score and 0.748 z-score.
Take ATAATTATATGAATGTGGTC: the binding signal in assay [1] is -0.503 z-score; in assay [2] it was -0.285 z-score; in assay [3], -0.118 z-score; in assay [4], 1.57 z-score.
For TTTTTTTTTTTTTTTTGAGA, in that order: -0.261 z-score, -0.427 z-score, -0.0563 z-score and -1.08 z-score.
Regarding AATTTTCCTTACGCAAATCT, the binding signal is -0.382 z-score in assay [1], -0.58 z-score in assay [2], 0.5 z-score in assay [3] and 0.387 z-score in assay [4].
The matching figures for AAGTTTCATAGAGGTCATGA: -0.659 z-score, -0.709 z-score, -0.403 z-score and 2.31 z-score.
As for GAAATGACTGCATGAAACCA, the binding signal in assay [1] is -0.622 z-score; in assay [2], -0.41 z-score; in assay [3] it was -0.473 z-score; in assay [4], 1.9 z-score.
For ATGTAGCTATTAGACCTTGC, in that order: -0.499 z-score, -0.413 z-score, 0.0856 z-score and -0.171 z-score.
As for TCAAGAGCGTAAGACTTTAT, the binding signal was -0.585 z-score in assay [1], -0.709 z-score in assay [2], -1.12 z-score in assay [3] and -1.4 z-score in assay [4].
For GCGGCGGGGCTGTCAGGCTC, in that order: -0.631 z-score, 0.0579 z-score, -0.158 z-score and -0.53 z-score.
The matching figures for AGAAGCGAGTAGGTGGGGAG: -0.382 z-score, -0.275 z-score, 0.237 z-score and 1.57 z-score.
The matching figures for AGCCCACTCAGGGTTCTGTG: -0.692 z-score, -0.617 z-score, -0.692 z-score and 0.38 z-score.
Regarding TACCCTTTAAAAATAGTTCA, the binding signal was 0.827 z-score in assay [1], 0.806 z-score in assay [2], -0.0116 z-score in assay [3] and 0.0452 z-score in assay [4].
On to TGCCAGGCACACAGCAGGTC, for which the binding signal in assay [1] is -0.847 z-score; in assay [2] it was -0.291 z-score; in assay [3], -0.232 z-score; in assay [4], 0.322 z-score.
For AGTCACCAGGGCTGGGAAGC, in that order: -0.123 z-score, 0.273 z-score, 0.11 z-score and 0.275 z-score.
For CAGGAGTTCGAGACCAGCTT, in that order: -0.39 z-score, -0.309 z-score, -0.668 z-score and 0.572 z-score.
On to GATAAGACTGCCTGAAAGCT, for which the binding signal in assay [1] is -0.588 z-score; in assay [2], -0.353 z-score; in assay [3], -0.693 z-score; in assay [4], 0.816 z-score.
The matching figures for TCCCAGATCAAGGTACTGGT: -0.476 z-score, -0.4 z-score, -0.267 z-score and 1.14 z-score.
The matching figures for TTTAATTATATTTTTTAAAT: -0.343 z-score, -0.141 z-score, -0.206 z-score and 0.774 z-score.
Turning to ACAATATTGTTTCTTTGAAA, the binding signal in assay [1] is -0.31 z-score; in assay [2] it was -0.613 z-score; in assay [3] it was -0.454 z-score; in assay [4], 0.27 z-score.
For AAATGCAGAAGTCATTTAAA, the binding signal in assay [1] is 3.68 z-score; in assay [2], 3.51 z-score; in assay [3], 0.071 z-score; in assay [4], -0.682 z-score.
TTTTATCAGGAAATGACTGG: the binding signal is 0.896 z-score in assay [1], 1.18 z-score in assay [2], 2.75 z-score in assay [3] and -1.3 z-score in assay [4].
The matching figures for AGTGTGGCATAAAATGTCAA: 0.0531 z-score, -0.253 z-score, -0.672 z-score and -1.93 z-score.
For CCAGCAGGAACAAAGCAGTG, in that order: 0.163 z-score, 1.05 z-score, 0.707 z-score and 0.292 z-score.
For ACACAAAGTGGCAAGATGCT, in that order: -0.193 z-score, -0.227 z-score, -0.486 z-score and -0.287 z-score.
Take TACGTTTTTCAGAGAATTTC: the binding signal in assay [1] was 0.314 z-score; in assay [2], -0.154 z-score; in assay [3], -0.0218 z-score; in assay [4] it was -1.11 z-score.
Turning to ACCTCTGCTGCCTGAAACTG, the binding signal in assay [1] was -0.299 z-score; in assay [2], -0.403 z-score; in assay [3], -0.105 z-score; in assay [4], 2 z-score.
For GGTCGGGGTTGGACAAGTGA, in that order: -0.662 z-score, -0.101 z-score, -0.0608 z-score and 0.66 z-score.
For GGTGAATTATATGCTCTGTA, in that order: -0.231 z-score, -0.434 z-score, -0.299 z-score and 1.13 z-score.
With GAATCTGTACTTCTCTTTTT, the binding signal in assay [1] was 3.14 z-score; in assay [2] it was 3.68 z-score; in assay [3], 0.73 z-score; in assay [4], -0.69 z-score.
For GAGGATGTGATAAACCTTTG, in that order: -0.155 z-score, -0.00648 z-score, 1.03 z-score and -1.16 z-score.
As for TTACAATCATGGAGGGAGGC, the binding signal in assay [1] is -1.05 z-score; in assay [2], -0.821 z-score; in assay [3] it was 0.273 z-score; in assay [4] it was -0.728 z-score.
The matching figures for TTAATAACATCTTCCCCAAC: 0.658 z-score, 0.664 z-score, 0.441 z-score and -0.51 z-score.
Consider CACAAGGCTGCGTGAAACTC, for which the binding signal was -0.811 z-score in assay [1], -0.381 z-score in assay [2], -0.992 z-score in assay [3] and 1.86 z-score in assay [4].
The matching figures for ATTTAGTACTCAGTGATAAA: 0.121 z-score, -0.162 z-score, -0.476 z-score and -0.53 z-score.
With CAACAGCGTGCAGTCTTTTT, the binding signal in assay [1] was -0.652 z-score; in assay [2], -0.364 z-score; in assay [3], -0.499 z-score; in assay [4] it was -0.432 z-score.
In the case of CCCAGAGCTGCGTGAAACCA, the binding signal in assay [1] was -0.491 z-score; in assay [2], -0.487 z-score; in assay [3] it was -0.599 z-score; in assay [4], 1.53 z-score.
Turning to GTTTTTTGGCTGCTCCAGAC, the binding signal is -0.405 z-score in assay [1], -0.708 z-score in assay [2], 0.219 z-score in assay [3] and -1.99 z-score in assay [4].
For GCCCTGGGTTTCACTGGCCT, in that order: -0.0585 z-score, -0.345 z-score, -0.984 z-score and 2.12 z-score.
In the case of CTTAATTTAATTGAGCAGGG, the binding signal was -0.64 z-score in assay [1], -0.505 z-score in assay [2], -0.294 z-score in assay [3] and -0.37 z-score in assay [4].
The matching figures for GCCACCGCCGGAGCGAAAAG: -0.726 z-score, -0.406 z-score, 0.215 z-score and 0.567 z-score.
The matching figures for AAATATCTCTTGCAATCAGA: -0.57 z-score, -0.136 z-score, -0.426 z-score and -0.151 z-score.
In the case of ATGGGTTCCTTGAATTTCAG, the binding signal in assay [1] came to 0.865 z-score; in assay [2] it was 0.708 z-score; in assay [3], 0.211 z-score; in assay [4] it was 0.305 z-score.
For TTTGGAACTGCCTGAAACCA, in that order: 0.0102 z-score, -0.345 z-score, 0.0717 z-score and 0.283 z-score.
The matching figures for CATGAGGATTATTTTAGAAG: -0.261 z-score, -0.719 z-score, -0.531 z-score and -0.554 z-score.
For GAGCCAGAACTAGCCAAAGA, in that order: -0.446 z-score, -0.272 z-score, -0.153 z-score and -0.546 z-score.
In the case of TGAGTTATGATCATGCCACT, the binding signal in assay [1] is -0.682 z-score; in assay [2], -0.381 z-score; in assay [3] it was -0.523 z-score; in assay [4] it was -0.345 z-score.
The matching figures for TGACGACTTTTCAGCTAGAC: -0.42 z-score, -0.567 z-score, -0.55 z-score and -0.596 z-score.
For GGTGTGGCTGCGTGAAACCT, in that order: -0.532 z-score, -0.391 z-score, -0.48 z-score and 1.29 z-score.

(Values after article PMC6451091.)
